From US10787442B2, “Modulators of indoleamine 2,3-dioxygenase” (GLAXOSMITHKLINE INTELLECTUAL PROPERTY DEVELOPMENT LIMITED, priority 2016, dated 2020)

Molecular target: indoleamine 2, 3-dioxygenase (IDO1) (Homo sapiens, UniProt P14902)
Test: IDO1 PBMC RapidFire MS Assay (kynurenine by mass spectrometry)
Type: cell-based
Conditions: human PBMC stimulated with IFN-γ and LPS, 2 days; recorded as pIC50; read-out: IDO1 PBMC PXC50 (converted)

Sequence of UniProt P14902 (P14902 whole entry): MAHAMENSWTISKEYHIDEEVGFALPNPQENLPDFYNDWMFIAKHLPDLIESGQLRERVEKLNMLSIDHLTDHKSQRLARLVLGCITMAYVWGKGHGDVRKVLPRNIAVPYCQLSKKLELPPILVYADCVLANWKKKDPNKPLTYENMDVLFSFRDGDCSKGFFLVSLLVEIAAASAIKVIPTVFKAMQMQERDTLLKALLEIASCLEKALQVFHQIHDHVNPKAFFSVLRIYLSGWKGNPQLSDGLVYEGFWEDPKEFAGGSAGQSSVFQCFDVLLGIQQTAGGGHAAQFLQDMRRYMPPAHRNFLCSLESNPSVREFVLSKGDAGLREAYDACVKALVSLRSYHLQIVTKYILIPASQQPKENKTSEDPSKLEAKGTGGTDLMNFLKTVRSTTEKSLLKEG

IC50	Compound
158 nM	CC(C)CN(c1ncc([C@H](C)CC(=O)NO)cc1Nc1ccc(Cl)cn1)C1CCOCC1 [Example 78, (3R)-3-{5-[(5-chloropyridin-2-yl)amino]-6-[(2-methylpropyl)(oxan-4-yl)amino]pyridin-3-yl}-N-hydroxybutanamide]
25.1 nM	CC(C)CN(c1ncc([C@H](C)CC(=O)NS(C)(=O)=O)cc1Nc1ccc(Cl)cn1)C1CCOCC1 [Example 79, (3R)-3-{5-[(5-chloropyridin-2-yl)amino]-6-[(2-methylpropyl)(oxan-4-yl)amino]pyridin-3-yl}-N-methanesulfonylbutanamide]
12.6 nM	CC(C)CN(c1ncc([C@H](C)CC(=O)NS(=O)(=O)N(C)C)cc1Nc1ccc(Cl)cn1)C1CCOCC1 [Example 80, (3R)-3-{5-[(5-chloropyridin-2-yl)amino]-6-[(2-methylpropyl)(oxan-4-yl)amino]pyridin-3-yl}-N-(dimethylsulfamoyl)butanamide]
20 nM	CC(C)CN(c1ncc([C@H](C)CC(=O)O)cc1Nc1nc(Cl)ns1)C1CC(F)(F)C1 [Example 81]
7.94 nM	CC(C)CN(c1cnc([C@H](C)CC(=O)O)cc1Nc1ccc(Cl)cn1)C1CCOCC1 [Example 82, (3R)-3-{4-[(5-chloropyridin-2-yl)amino]-5-[(2-methylpropyl)(oxan-4-yl)amino]pyridin-2-yl}butanoic acid]
> 10000 nM	C[C@H](CC(=O)O)c1cnc(N(CCCCCN)C2CCOCC2)c(Nc2ccc(Cl)cn2)c1 [Example 83, (3R)-3-{6-[(5-aminopentyl)(oxan-4-yl)amino]-5-[(5-chloropyridin-2-yl)amino]pyridin-3-yl}butanoic acid]
126 nM	C[C@H](CC(=O)O)c1cnc(N(CCCCCNC(=O)OC2CC/C=C/CCC2)C2CCOCC2)c(Nc2ccc(Cl)cn2)c1 (stereo partly drawn) [Example 84, (3R)-3-{5-[(5-chloropyridin-2-yl)amino]-6-{[5-({[(4E)-cyclooct-4-en-1-yloxy]carbonyl}amino)pentyl](oxan-4-yl)amino}pyridin-3-yl}butanoic acid]
